# Measurements taken from publication PMC4336329 (PLoS ONE, 2015).
# Hit rate of the full screen: of about 310,000 compounds, about 14,000 (4.5%) showed an effect of 50% or more. Effects have a minus sign here. This is one part of the list.
# Biological target: human ether-à-go-go-related gene (hERG) potassium channel (human, UniProt Q12809)
# Assay: primary screen, population patch clamp on CHO cells stably expressing hERG
# 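Note: peak tail current of the secondary pulse compared with the same well before compound.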
# human ether-à-go-go-related gene (hERG) potassium channel, sequence (Q12809 whole entry, looked up): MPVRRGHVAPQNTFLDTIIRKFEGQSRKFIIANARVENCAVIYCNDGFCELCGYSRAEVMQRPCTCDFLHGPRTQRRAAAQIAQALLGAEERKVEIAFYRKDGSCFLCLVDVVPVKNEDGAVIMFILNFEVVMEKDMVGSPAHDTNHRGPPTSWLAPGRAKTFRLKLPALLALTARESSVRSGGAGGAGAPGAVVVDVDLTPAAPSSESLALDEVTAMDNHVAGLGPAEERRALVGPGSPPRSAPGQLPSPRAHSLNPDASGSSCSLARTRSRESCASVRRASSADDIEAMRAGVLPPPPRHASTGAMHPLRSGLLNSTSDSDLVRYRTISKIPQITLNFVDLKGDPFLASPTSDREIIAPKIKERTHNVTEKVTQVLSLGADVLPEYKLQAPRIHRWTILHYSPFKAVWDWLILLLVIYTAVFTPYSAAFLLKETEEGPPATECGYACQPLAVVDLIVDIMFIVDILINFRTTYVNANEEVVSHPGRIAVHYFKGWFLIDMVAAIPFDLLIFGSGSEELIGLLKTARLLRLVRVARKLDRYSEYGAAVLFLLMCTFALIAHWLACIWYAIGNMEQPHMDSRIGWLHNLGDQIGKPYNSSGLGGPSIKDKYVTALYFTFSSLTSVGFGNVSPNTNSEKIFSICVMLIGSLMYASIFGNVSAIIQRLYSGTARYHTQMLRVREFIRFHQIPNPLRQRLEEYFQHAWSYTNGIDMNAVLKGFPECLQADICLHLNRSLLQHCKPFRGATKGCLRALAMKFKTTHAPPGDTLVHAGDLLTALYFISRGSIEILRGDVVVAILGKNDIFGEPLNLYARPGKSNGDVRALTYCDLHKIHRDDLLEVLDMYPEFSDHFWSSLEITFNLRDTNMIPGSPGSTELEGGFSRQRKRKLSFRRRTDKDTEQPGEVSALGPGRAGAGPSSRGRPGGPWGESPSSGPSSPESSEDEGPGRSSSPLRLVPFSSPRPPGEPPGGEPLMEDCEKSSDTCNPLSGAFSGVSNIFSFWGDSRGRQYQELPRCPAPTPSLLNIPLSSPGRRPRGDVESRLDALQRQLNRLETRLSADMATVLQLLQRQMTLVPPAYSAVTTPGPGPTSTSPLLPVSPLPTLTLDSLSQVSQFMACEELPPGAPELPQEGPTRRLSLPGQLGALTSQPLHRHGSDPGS
row,Compound,"hERG current change (%, negative = inhibition) at 10uM [%]"
1,COc1ccc(/C=N\Nc2ccccn2)c(OC)c1,12.5
2,O=C(COc1ccccc1Cl)NCCCNC(=O)c1cnccn1,5.28
3,C#CC[N+](CC)(CC)CC#Cc1cccc(Cl)c1.[Br-],-0.889
4,CCOC(=O)n1c(=O)n(Cc2ccccc2C)c2ccccc21,-13.6
5,CCc1ccccc1NC(=O)c1ccoc1C,2.35
6,CCOC(=O)c1cc(NC(=O)c2ccc(C)cc2)c(=O)oc1C(F)(F)F,-2.5
7,CCc1nc(SCC(=O)Nc2ccc(N(C)C)cc2)c2ccccc2n1,1.86
8,CC1CCCC(C)N1CCCNC(=O)Cn1c(=O)c2cccn2c2cccnc21 (centres unmarked),2.77
9,Cc1ccc(OCC(=O)Nc2ccc3c(c2)nc(CCN2CCCCC2)n3C)cc1,-82.3
10,CC(C)CCN1C(=O)C2(OCCCO2)c2cc(Cl)ccc21,22.2
11,COc1ccccc1CNC(=O)C(=O)NCC1OCCN1S(=O)(=O)c1cccs1 (centres unmarked),-14
12,CCOC(=O)C1CCCN(Cc2ccc3c(c2)OCO3)C1 (centres unmarked),-9.12
13,Cc1cccc(C(=O)Nc2ccc(S(=O)(=O)Nc3nc(C)cc(C)n3)cc2)c1,1.72
14,CCCn1cc(CN2CCCC(C(=O)c3cccc(OC)c3)C2)c(C)n1 (centres unmarked),-51
15,CCOC(=O)C1CCN(CC(C)(C)NS(=O)(=O)c2ccc(C)cc2)CC1,-4.95
16,CC1(C)Nc2ccccc2N(CCC(=O)N2CCOCC2)C1=O,6.16
17,O=C(COC(=O)c1cc(=O)[nH]c2ccccc12)Nc1nc(-c2ccccc2)cs1,-1.24
18,CCNC(=O)CN1C(=O)NC2(CCCc3cc(OC)ccc32)C1=O (centres unmarked),-1.29
19,Cc1ccc2c(CSc3nnc(C4CC4)n3N)cc(=O)oc2c1,-2.45
20,Cc1cccc(NS(=O)(=O)c2csc(C(N)=O)c2)c1,8.92
21,O=C(Nc1ccc(S(=O)(=O)Nc2ccc(Cl)cc2)cc1)C1CCCO1 (centres unmarked),-2.51
22,Cc1sc2ncnc(N3CCC(C(=O)Nc4ccc(Cl)cc4Cl)CC3)c2c1C,-7.65
23,CCCn1nnnc1NCc1cccn1C,-7.04

row,Compound,"hERG current change (%, negative = inhibition) at 10uM [%]"
1,COc1ccccc1CN1C[C@@H]2C[C@@H](c3cccc(O)c3)N3CCC[C@@]23C1=O,-33.6
2,O=C(NCCc1ccccc1)c1ccc(Cl)c(S(=O)(=O)N2CCCC2)c1,-23.1
3,CCOC(=O)c1oc2ccc(Br)cc2c1CSc1nnc(C)s1,14
4,Cc1cc(N/N=C/c2cccc(Cl)c2)nc(NCc2ccccc2)n1,-7.24
5,O=C(c1cc([N+](=O)[O-])ccc1Cl)N1CCN(Cc2ccc3c(c2)OCO3)CC1,-16.6
6,Cc1ccn(CC(C)C(=O)O)n1 (centres unmarked),10.3
7,O=[N+]([O-])c1ccccc1S(=O)(=O)Nc1cccc(-c2ccc3nncn3n2)c1,-16.2
8,CCOC(=O)c1sc(NC(=O)CSc2nc(-c3ccco3)cc(C(F)(F)F)n2)c(C#N)c1C,-4.12
9,O=C(N/N=C/c1cc2c(cc1Br)OCO2)C1COc2ccccc2O1 (centres unmarked),9.94
10,CCN1C(=O)CSC1=NC1C2CC3CC(C2)CC1C3 (centres unmarked),11.5
11,CCc1ccc(OCCCC(=O)Nc2nccs2)cc1,25.2
12,COc1ccc(NC(=S)NCCCN2CCN(C3CCCCC3)CC2)cc1,-47.7
13,C/C(=N\OCc1nc2ccccc2c(=O)n1/N=C/c1cc(C)cc([N+](=O)[O-])c1O)c1ccccc1,-7.33
14,CCOC(=O)Cc1nnc(Nc2ccc(C(=O)NC)cc2)c2ccccc12,10.6
15,Cc1cccc(N2CCN(C(=O)c3ccc(CS(=O)(=O)c4ccccc4C)o3)CC2C)c1 (centres unmarked),-32
16,COC(=O)CCC(=O)NNC(=O)c1cccc(Cl)c1,16.4
17,Cc1ccc(S(=O)(=O)Nc2cccc(Oc3cnccn3)c2)cc1,9.22
18,COc1ccc(C(=O)Nc2ccc(NC(=O)C3CC3)cn2)cc1,4.49
19,Cc1ccc(NS(=O)(=O)c2cccc(C(=O)n3ncc(C#N)c3N)c2)c(C)c1,-4.88
20,COc1ccc(CNC(=O)c2ccc3c(c2)N(C)C(=O)CS3=O)cc1 (centres unmarked),4.89
21,CCn1c(SCC(=O)Nc2ccccc2Br)nnc1-c1cnccn1,-24
22,O=C(Nn1c(C2CCC2)nc2ccccc2c1=O)C1CCC1,-3.6
23,Cc1cc(C(=O)N2CCN(Cc3ccccc3)CC2)on1,-14.4

row,Compound,"hERG current change (%, negative = inhibition) at 10uM [%]"
1,Cc1n[nH]c(=O)nc1NCc1ccccc1,-4.9
2,COc1ccc(OC)c(NC(=O)c2ccccc2N(C)S(=O)(=O)c2ccc(C)cc2)c1,-9.39
3,O=C(/C=C/c1c(Cl)cccc1Cl)NCc1ccccc1,14.3
4,COc1ccc(/C=C/C(=O)c2c(O)n(CCC3=CCCCC3)c(=O)[nH]c2=O)cc1OC,6.71
5,Cc1ccc(C(=O)NC(C)c2ccc3c(c2)OCO3)s1 (centres unmarked),-24.1
6,CCOP(=O)(OCC)C(Nc1cccc(C(F)(F)F)c1)c1ccc(F)cc1 (centres unmarked),-19.5
7,CN(CCO)c1ncnc2nc[nH]c12,-2.24
8,Cc1ccccc1NC(=O)C1C2CCC(O2)C1C(=O)O (centres unmarked),15.8
9,N#C/C(=C(/O)CSc1n[nH]c(N)n1)c1nc2ccccc2[nH]1,2.14
10,S=C(NCCc1ccc(Cl)cc1)NC1CCCCC1,9.61
11,CC(=O)c1ccc(OCc2cc(C(=O)NC(C)Cc3ccccn3)no2)cc1 (centres unmarked),-4.3
12,CN(c1cccc(NC(=O)CN(c2ccc(F)cc2)S(C)(=O)=O)c1)S(C)(=O)=O,14.8
13,N#Cc1c(-c2ccc(Cl)cc2)c2c([nH]c1=S)CCCC2,15
14,CC(C)c1nnc(SCC(=O)N2CCN(C(=O)c3ccco3)CC2)n1N,19.8
15,Cc1ccc(NC(=O)/C(C#N)=C/c2cn(CC(=O)NCc3ccco3)c3ccccc23)cc1C,22.9
16,Cc1c(C(=O)N2CCC3(CC2)OCCO3)oc2ccc(S(=O)(=O)N3CCCCC3)cc12,-0.666
17,O=[N+]([O-])c1cc(CN2CCCC2)ccc1Sc1ccc(Cl)cc1,-93.8
18,CC1CCCCC1NC(=O)NC(=O)CCl.Cl (centres unmarked),14.3
19,CN(CC(=O)Nc1cccc(F)c1)C(=O)CCc1nc2ccccc2c(=O)[nH]1,2.42
20,CCCCCCCN1C2=NCCCN2c2ccccc21.Cl,-58.5
21,COc1ccc([N+](=O)[O-])cc1NS(=O)(=O)c1ccc(C(=O)N2CCCC2)cc1,-18.8
22,CCc1cc2c(SCC(=O)NCC3CCCO3)ncnc2s1 (centres unmarked),-1.05
23,COC(=O)/C=C1\C(=O)N(c2nc3ccc(OC)cc3s2)C(=S)N1c1ccc(F)cc1,-7.23

row,Compound,"hERG current change (%, negative = inhibition) at 10uM [%]"
1,CN(C)CCCNC(=O)C(=O)NCC1OCCN1S(=O)(=O)c1cccs1 (centres unmarked),8.26
2,O=C(NC1CCCc2ccccc21)C1CCN(S(=O)(=O)c2ccccc2F)CC1 (centres unmarked),-13.7
3,COc1ccc(OC)c(-c2cn(S(=O)(=O)c3ccccc3)nc2N)c1,-9.63
4,Cn1c2c(c(=O)n(C)c1=O)C(c1ccc(C(F)(F)F)cc1)CC(=O)N2 (centres unmarked),12.3
5,CCCSc1nc2c(cnn2-c2ccc(F)cc2)c(=O)[nH]1,6.84
6,CCOc1ccc(C2=Nn3c(nnc3-c3ccccc3OC)SC2)cc1,-63.4
7,N#C/C(=C\c1ccc(F)c(F)c1)C(=O)NC1CCCCC1,5.58
8,CC(C)C(=O)Nc1cccc(NC(=S)NC(=O)c2ccc(Cl)cc2)c1,-1.09
9,O=C(Nc1ncc2c(n1)CC(c1ccc(Cl)cc1)CC2=O)c1ccco1 (centres unmarked),-71.6
10,COc1ccc(C)cc1NC(=O)CSc1nnc(CC(=O)Nc2ccccc2C)n1C,-18
11,CCCC(c1nnnn1CC(=O)OCC)N(Cc1cc2c(C)cc(C)cc2[nH]c1=O)C1CCCC1 (centres unmarked),22.1
12,CCOc1ccccc1C1C(C#N)=C(N)Oc2n[nH]c(CC)c21 (centres unmarked),-4.75
13,CCOc1ccc(NC(=O)[C@@H]2CCC(=O)N2C2OC(=O)c3ccccc32)cc1 (some centres unmarked),8.47
14,O=C(CC(=O)Nc1ccc(F)cc1F)Nc1ccc(F)cc1F,11.5
15,CC(=O)c1cccc(NC(=O)NC2CCCCCCC2)c1,8.57
16,O=C(Nc1cccc(NC(=O)c2ccc(-c3ccc(Br)cc3)o2)c1)c1ccco1,-4.99
17,Cc1cc(C)c(C(=O)CSc2nnc(N)s2)cc1C,0.147
18,CCN(CC)c1ccc([C@H]2[C@@H]3CCCC[C@]3(O)CCN2CC(=O)NCc2ccco2)cc1,-0.465
19,CC(=O)C1=C(C)N(c2ccccc2)C(=O)C1(NS(=O)(=O)c1ccc(N)cc1)C(F)(F)F (centres unmarked),16.3
20,O=C(COc1ccccc1Cl)Nc1nnc(S(=O)(=O)N2CCCC2)s1,23.9
